# Test results taken from PubChem BioAssay AID1745845 (National Center for Advancing Translational Sciences (NCATS), 2022).
# “And” between values parts separate entries of the source, which are not always exact repeats. Equal values may be shown once. In all, about 360,000 compounds went through this assay and about 2,600 (0.72%) were called active. Inconclusive results, whose numbers are uncertain, are shown with a selection of clear calls. The call rests on the fitted dose curve; in most records, active means well fitted inhibition curve with a large enough effect; inconclusive means small, poorly fitted or top-dose-only effect; inactive means no such curve, though single readings can be large or run the other way. Potencies of inconclusive entries are doubtful fits and often do not repeat. More than one record can exist for a structure, and the calls need not agree.
# Test: Primary qHTS for Inhibitors of ATXN expression; further: nearly all actives have a fitted effect of over 55% in size
# Conditions: HEK-293 ATXN2-luciferase reporter, luminescence, 24 h; activity change, negative = inhibition: at 57 µM (top of the series)
# Procedure, shortened: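 ATXN2-luciferase reporter cells (luciferase flanked by upstream and downstream ATXN2 gene portions) were treated 24 h at 37 °C with compounds at up to 57 uM. SteadyGlo luminescence gave expression; GF-AFC fluorescence gave viability.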
# On the % scale 0 is the no-effect control and ±100 the full control effect; potency means the concentration at half of the fitted maximal effect; tags describe the fitted curve by direction and shape.
Structure (SMILES),Potency,"activity change, negative = inhibition"
O=C(Nc1nc(-c2ccccn2)cs1)c1cc2ccccc2o1,inactive,–
CN(C)CCC1(C2=CCCC2)CC/C(=C/c2ccc(Cl)cc2)C1=O (stereo unspecified),"inconclusive: 39.8 µM [inhibitor, single point]",–
CCCc1c(-c2ccc(Cl)cc2)ncn1Cc1ccccc1OC,"inconclusive: 31.6 µM [inhibitor, single point]",–
CCc1nc2ccc(C(=O)Nc3ccc(OC)c(OC)c3)cn2c1N(C)Cc1ccc(OC)cc1,"inconclusive: 35.5 µM [inhibitor, single point]",–
Cc1cccc(C(=O)N2CCN(Cc3nc4sc5c(c4c(=O)[nH]3)CCCC5)CC2)c1,"inconclusive: 12.6 µM [inhibitor, partial curve, poor fit]",–
CN(Cc1ccccc1)C(=O)c1ccc(CSc2nc3cccnc3n2Cc2ccccc2)cc1,inactive,–
O=C1NN=C(c2ccc(Cl)cc2)CC1c1c[nH]c2ccccc12 (stereo unspecified),"inconclusive: 0.752 µM [inhibitor, full curve, poor fit]",–
OC(CNCc1ccco1)Cn1c2ccccc2c2ccccc21 (stereo unspecified),inactive,–
CCN(CC)S(=O)(=O)c1ccc2c(c1)N(CC(=O)NCCCN1CCN(c3cc(C)ccc3C)CC1)C(=O)CO2,active: 31.6 µM,–
COc1cc([N+](=O)[O-])cc(/C=N/NC(=O)c2cc(-c3ccccc3)nc3ccccc23)c1O,"inconclusive: 10 µM [inhibitor, partial curve]",–
Cc1cccc(N2CCN(C(=O)CNC(=O)Cc3ccccc3)CC2)c1C,"inconclusive: 31.6 µM [inhibitor, single point]",–
Cc1cccc(NC(c2ccc(C)s2)c2ccc3ccc(C)nc3c2O)n1 (stereo unspecified),"inconclusive: 39.8 µM [inhibitor, single point]",–
Cc1ccccc1NC(=O)Nc1nc(C(N)C2CCCCC2)cs1 (stereo unspecified),"inconclusive: 39.8 µM [inhibitor, single point]",–
COc1ccc(/C=C/c2c([N+](=O)[O-])c(=O)n(C)c(=O)n2C)cc1O,inactive,–
CN(C)C(=O)C(CCN1CCC(O)(c2ccc(Cl)cc2)CC1)(c1ccccc1)c1ccccc1,"active: 27.3 µM and inconclusive: 20 µM [inhibitor, full curve, poor fit]",–
COc1ccccc1/C=C/C1(C(=O)NC2CCCC2)CC(=O)N1c1ccc(F)cc1 (stereo unspecified),active: 17.8 µM,–
CCOCCCNC(=O)c1cn2c3c(ccc(Cl)c3c1=O)OC(C)C2 (stereo unspecified),inactive,–
CCOc1cccc2sc(N(CCN(C)C)C(=O)c3ccc4ccccc4c3)nc12,inactive,–
CN[C@H]1[C@@H](O)[C@@H]2O[C@@H]3O[C@H](C)CC(=O)[C@]3(O)O[C@@H]2[C@@H](NC)[C@H]1O,active: 27.3 µM,–
O=C(Nc1nnc(-c2cccs2)o1)c1cccc(C(F)(F)F)c1,active: 15.8 µM,–
COc1cc(C(=O)NC2CCN(C)CC2)ccc1Nc1ncc2c(n1)N(C1CCCC1)CCC(=O)N2C(C)C,"active: 6.11 µM and inconclusive: 39.8 µM [inhibitor, single point]",–
CC(C)(C)c1nnc(N/N=C/c2ccccc2O)n(N)c1=O,"inconclusive: 2.51 µM [inhibitor, full curve, poor fit]",–

Structure (SMILES),Potency,"activity change, negative = inhibition"
CCCn1c2ccccc2c2cnn(CC(=O)NCCCN3CCN(c4ccccc4)CC3)c(=O)c21,"inconclusive: 15.8 µM [inhibitor, single point]",–
CCCCCC(=O)NNC1CC(=O)N(c2cccc(OCC)c2)C1=O (stereo unspecified),inactive,–
COC(=O)c1ccc2nc(NC(=O)C3CCCCC3)sc2c1,inactive,–
CC(=O)OCCCNc1cc(Sc2nc3ccccc3s2)c2nonc2c1[N+](=O)[O-],active: 15.8 µM,–
O=C(C[C@H]1C[C@H](C(=O)N2CCOCC2)[C@@]2(CCC3CCCC3)c3[nH]c4ccc(Cl)cc4c3CCN2C1=O)NCCCn1ccnc1,"inconclusive: 35.5 µM [inhibitor, single point]",–
COCCn1c(C)cc(C(=O)CSc2nc3ccccc3c(=O)n2Cc2ccco2)c1C,inactive,–
COc1cc(/C=C/C(=O)Nc2ccc(OC)c(S(=O)(=O)N3CCOCC3)c2)ccc1OC(F)F,"inconclusive: 39.8 µM [inhibitor, single point]",–
CCn1c(SCc2nc(-c3cccs3)no2)nnc1-c1c[nH]c2ccccc12,"inconclusive: 22.4 µM [inhibitor, partial curve]",–
COc1ccc(/C(C)=N/Nc2nc(C)cc(-c3ccccc3)n2)cc1,"inconclusive: 4.23 µM [inhibitor, full curve, poor fit]",–
CCCOP(=O)(c1ccc(N(C)C)cc1)C(Nc1ccccc1)c1ccc(C)cc1 (stereo unspecified),"inconclusive: 37.7 µM [inhibitor, partial curve, poor fit]",–
O=C(CNC(=O)c1ccccc1O)N/N=C/c1cc(Br)ccc1OC(=O)/C=C/c1ccco1,"inconclusive: 7.08 µM [inhibitor, partial curve, poor fit]",–
Cc1ccc2c(c1)c(=O)c1ccccc1n2CCCC(=O)Nc1ccc(C)c(C)c1,"inconclusive: 11.2 µM [inhibitor, single point]",–
CC1(C)NC(=O)N(CC(O)CN(c2ccccc2)S(=O)(=O)c2ccccc2[N+](=O)[O-])C1=O (stereo unspecified),inactive,–
O=C(OCC(=O)N1CCCC1=O)c1nc(Cl)c(Cl)c(Cl)c1Cl,"inconclusive: 14.1 µM [inhibitor, partial curve]",–
Cc1ccc2onc(CNC(=O)N3CCN(c4cc(Cl)ccc4C)CC3)c2c1,"inconclusive: 22.4 µM [inhibitor, single point]",–
CC(=O)Nc1ccc(NC(=O)C(C)OC(=O)C2(c3ccccc3F)CCCC2)cc1 (stereo unspecified),inactive,–
C[C@H](NC(=O)c1[nH]cnc1C(=O)Nc1ccccc1F)c1ccccc1,"inconclusive: 28.2 µM [inhibitor, single point]",–
O=C(O)CSc1c2ccccc2cc2ccccc12,–,inconclusive: -51% [inhibitor]
CC1(C)CC(N=Cc2c(O)n(Cc3ccc4c(c3)OCO4)c(=O)c3ccccc23)CC(C)(C)N1,"inconclusive: 37.7 µM [inhibitor, single point]",–
CCOc1ccc(C2CC(=O)Nc3c2c(=O)[nH]c2ncnn32)cc1 (stereo unspecified),inactive,–
Cc1nc2ccc(-c3nc4ccc(N)cc4[nH]3)cc2[nH]1,–,inconclusive: -58.6% [inhibitor]
Cc1c(NS(=O)(=O)c2ccc3c(c2)OCCO3)cccc1-c1nc2cccnc2s1,inactive,–

Structure (SMILES),Potency,"activity change, negative = inhibition"
CCOc1ccccc1OCCCC(=O)Nc1nc2ccccc2[nH]1,"inconclusive: 37.7 µM [inhibitor, single point]",–
O=[N+]([O-])c1cc(/C=N/N/C(=N/c2ccccn2)c2ccccn2)ccc1O,"inconclusive: 11.9 µM [inhibitor, partial curve, poor fit]",–
CCC(OC(=O)c1nsc(Cl)c1Cl)C(=O)NCC1CCCO1 (stereo unspecified),"inconclusive: 10 µM [inhibitor, partial curve, poor fit]",–
CC(=O)Nc1sc2c(c1-c1nc3ccccc3s1)CCN(C(C)C)C2,active: 5.32 µM,–
O=C(CCN1Cc2ccccc2C1)c1ccc2c(c1)OCCO2,"inconclusive: 39.8 µM [inhibitor, single point]",–
Cc1ccccc1-c1nc(CN2CCC(C(=O)O)CC2)c(C)o1,inactive,–
CC[N+](CC)(CC)CCOc1ccc(/C=C/c2ccccc2)cc1,"active: 17.8 µM and inconclusive: 15.8 µM [inhibitor, partial curve]",–
Cn1c(NCCc2ccncc2)nc2cc(-c3ccsc3)sc2c1=O,"inconclusive: 31.6 µM [inhibitor, single point]",–
CCN(CC)S(=O)(=O)c1cc(NC(=S)NC(=O)C2CCCC2)ccc1C,"inconclusive: 12.6 µM [inhibitor, partial curve]",–
Cc1cccnc1C(NC(=O)C1CCN(Cc2ccc(Oc3ccccc3)cc2)CC1)c1ccccc1 (stereo unspecified),"inconclusive: 39.8 µM [inhibitor, single point]",–
Cc1c(C(=O)N(Cc2cccc(Cl)c2)Cc2ccco2)oc2ccccc12,inactive,–
O=C1CC(c2cccc(F)c2)c2c(c3ccccc3[nH]c2=O)O1 (stereo unspecified),inactive,–
CC(C)CC(N)c1csc(NC(=O)Nc2ccccc2C(C)(C)C)n1 (stereo unspecified),"inconclusive: 39.8 µM [inhibitor, single point]",–
CNS(=O)(=O)c1cc(N(C)S(=O)(=O)c2ccc(C)cc2)c(C)cc1C,inactive,–
CCCCn1c(NS(=O)(=O)c2ccccc2)c(S(=O)(=O)c2ccc(C)cc2)c2nc3ccccc3nc21,"inconclusive: 12.6 µM [inhibitor, partial curve]",–
Cc1ccc(Cn2ccsc2=NC(=O)CCl)cc1,"inconclusive: 1.19 µM [inhibitor, full curve, poor fit]",–
COc1cccc(CNC(=O)CSc2nnc(C)c3c(C)n(-c4ccccc4)nc23)c1,"inconclusive: 39.8 µM [inhibitor, single point]",–
O=C(N/N=C/C=C\c1ccc([N+](=O)[O-])cc1)c1cccnc1,inactive,–
CCOc1ccc(Nc2nc(N)nc(CCl)n2)cc1,"inconclusive: 6.7 µM [inhibitor, full curve, poor fit]",–
CCN(CC)c1ccc(/C=N/Nc2nc3ccccc3[nH]2)c(O)c1,"inconclusive: 2.24 µM [inhibitor, full curve, poor fit]",–
O=C1Nc2ccc(Br)cc2/C1=C/C(=O)c1ccccc1,"inconclusive: 37.7 µM [inhibitor, single point]",–
CC(C)N(C(=O)CSc1ncnc2sc(-c3ccccc3)cc12)C(C)C,inactive,–
